Source: patent publication US20080280833A1 (published 2008)

Target: T1, purified human αvβ3 integrin (Chemicon) (human, UniProt P06756 31-1048; P05106 27-788)
T1 construct: also called integrin αvβ3; recombinant αvβ3
Test: cell-free pull-down: 125I-suPAR + purified αvβ3 with or without uPA (4 µg), immunoprecipitation with LM609, densitometry

T1 sequence (P06756 31-1048, form in doubt, chain 1 of 2): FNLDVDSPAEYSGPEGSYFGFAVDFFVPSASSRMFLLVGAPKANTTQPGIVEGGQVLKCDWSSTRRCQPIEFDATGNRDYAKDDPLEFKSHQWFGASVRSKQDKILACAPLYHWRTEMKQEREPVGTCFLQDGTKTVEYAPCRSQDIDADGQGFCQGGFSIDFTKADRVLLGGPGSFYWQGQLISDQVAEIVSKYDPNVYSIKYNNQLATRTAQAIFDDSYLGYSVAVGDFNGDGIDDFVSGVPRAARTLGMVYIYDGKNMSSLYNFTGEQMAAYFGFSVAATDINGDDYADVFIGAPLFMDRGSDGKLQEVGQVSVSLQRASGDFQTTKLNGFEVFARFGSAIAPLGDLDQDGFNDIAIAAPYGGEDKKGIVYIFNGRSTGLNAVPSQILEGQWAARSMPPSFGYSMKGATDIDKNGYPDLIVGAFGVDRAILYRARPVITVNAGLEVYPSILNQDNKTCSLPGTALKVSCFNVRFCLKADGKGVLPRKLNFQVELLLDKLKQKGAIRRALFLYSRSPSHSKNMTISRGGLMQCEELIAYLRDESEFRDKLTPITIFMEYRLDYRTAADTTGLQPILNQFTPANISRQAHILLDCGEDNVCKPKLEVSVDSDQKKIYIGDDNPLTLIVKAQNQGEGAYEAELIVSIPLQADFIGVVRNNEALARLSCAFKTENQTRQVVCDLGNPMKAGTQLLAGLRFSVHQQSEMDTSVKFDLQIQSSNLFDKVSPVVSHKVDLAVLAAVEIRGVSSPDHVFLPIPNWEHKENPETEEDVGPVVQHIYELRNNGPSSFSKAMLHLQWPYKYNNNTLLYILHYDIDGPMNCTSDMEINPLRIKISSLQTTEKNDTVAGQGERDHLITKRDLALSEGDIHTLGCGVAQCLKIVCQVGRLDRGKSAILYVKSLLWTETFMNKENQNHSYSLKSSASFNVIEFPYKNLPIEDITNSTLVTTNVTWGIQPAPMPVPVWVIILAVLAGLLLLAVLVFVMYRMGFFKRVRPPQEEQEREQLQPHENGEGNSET
T1 sequence (P05106 27-788, form in doubt, chain 2 of 2, further chain): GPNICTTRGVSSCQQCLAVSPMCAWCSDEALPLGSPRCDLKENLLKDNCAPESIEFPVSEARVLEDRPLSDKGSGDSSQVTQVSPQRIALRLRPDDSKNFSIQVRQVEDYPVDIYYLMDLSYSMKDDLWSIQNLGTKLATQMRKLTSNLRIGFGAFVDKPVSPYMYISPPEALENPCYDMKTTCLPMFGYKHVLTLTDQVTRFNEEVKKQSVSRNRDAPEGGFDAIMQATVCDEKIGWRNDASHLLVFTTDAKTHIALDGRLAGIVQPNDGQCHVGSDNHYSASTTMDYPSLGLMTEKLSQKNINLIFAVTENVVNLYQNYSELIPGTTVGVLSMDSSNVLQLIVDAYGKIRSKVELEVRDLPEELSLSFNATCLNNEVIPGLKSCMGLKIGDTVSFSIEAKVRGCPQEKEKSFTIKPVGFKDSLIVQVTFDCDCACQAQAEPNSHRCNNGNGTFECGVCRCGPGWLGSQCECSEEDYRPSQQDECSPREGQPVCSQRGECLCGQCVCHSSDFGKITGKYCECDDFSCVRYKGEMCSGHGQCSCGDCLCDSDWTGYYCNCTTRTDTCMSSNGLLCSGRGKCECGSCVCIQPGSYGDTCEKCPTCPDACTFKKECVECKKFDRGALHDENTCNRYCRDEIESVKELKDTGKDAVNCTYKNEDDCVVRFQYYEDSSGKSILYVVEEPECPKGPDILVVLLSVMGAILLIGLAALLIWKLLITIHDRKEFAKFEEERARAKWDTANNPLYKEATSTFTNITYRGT

fold increase in coimmunoprecipitated suPAR on addition of uPA: ~10 fold
B1: soluble human uPAR (suPAR) (receptor)
chain: not shown
modifications: radioiodinated (125I)
notes: the whole natural entry is named; also called 125I-suPAR; 125I-soluble uPAR
